From patent US20200283537A1 (published 2020)

B1: rFOLR1 (Fc fusion)
chain: RIAWARTELLNVCMNAKHHKEKPGPEDKLHEQCRPWRKNACCSTNTSQEAHKDVSYLYRFNWNHCGEMAPACKRHFIQDTCLYECSPNLGPWIQQVDQSWRKERVLNVPLCKEDCEQWWEDCRTSYTCKSNWHKGWNWTSGFNKCAVGAACQPFHFYFPTPTVLCNEIWTHSYKVSNYSRGSGRCIQMWFDPAQGNPNEEVARFYAAAGGSGGS[human IgG4 Fc with S228P R409K (EU numbers) omitted here]
B2: rDR5 (Fc fusion)
chain: ITQQDLAPQQRAAPQQKRSSPSEGLCPPGHHISEDGRDCISCKYGQDYSTHWNDLLFCLRCTRCDSGEVELSPCTTTRNTVCQCEEGTFREEDSPEMCRKCRTGCPRGMVKVGDCTPWSDIECVHKESGGGSGGS[human IgG4 Fc with S228P R409K (EU numbers) omitted here]

Assays:
BaCa-WT-Fc (LL)-S267E = test: ELISA
BaCa-KO-Fc (LALA)-S267E = test: ELISA

| Binder | Kd (BaCa-WT-Fc (LL)-S267E) | Kd (BaCa-KO-Fc (LALA)-S267E) |
| --- | --- | --- |
| B1 | 0.596 nM | 0.801 nM |
| B2 | 1.39 nM | 1.69 nM |
